Among the test systems are WM115; WM1716; WM1745; WM3526; WM3619; WM451Lu.
Test in all cases: cell count relative to DMSO control; melanoma cells; higher = more viable cells
Conditions in all cases: library dose: low library concentration; 72 h

The other results are listed elsewhere or left out. Single values are uncertain, as repeats are few or missing.
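Note: cell number obtained by counting DAPI-stained nuclei in high-throughput microscope images with image analysis software, screen run in 1,536-well plates.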

Take `C[C@]1(O)C[C@@H](c2nc(-c3ccc4ccc(-c5ccccc5)nc4c3)c3c(N)nccn32)C1` + Oc1nc(-c2ccc(C(F)(F)F)cc2)nc2c1CSCC2 [XAV939] (first compound 0.4 µM, partner dose 2 µM): the cell count in the assay with WM115 turned out to be 100%; in the assay with WM1716 it was 65.6%; in the assay on WM1745, 71.7%; in the assay with WM3526, 78%; with WM3619, 102%; with WM451Lu, 93.1%.

As to `C[C@]1(O)C[C@@H](c2nc(-c3ccc4ccc(-c5ccccc5)nc4c3)c3c(N)nccn32)C1` + CS(=O)(=O)c1ccc(C(=O)Nc2ccc(Cl)c(-c3ccccn3)c2)c(Cl)c1 [vismodegib] (first compound 0.4 µM, partner dose 1 µM), the cell count in the assay with WM115 stood at 92.4%; with WM1716, 107%; in the assay with WM1745, 78.6%; in the assay with WM3526, 85.8%; in the assay with WM3619, 88.1%; in the assay on WM451Lu it was 87.6%.

In the case of `Cn1cnc2c(F)c(Nc3ccc(Br)cc3Cl)c(C(=O)NOCCO)cc21` [selumetinib] + O=C(O)c1ccc(-c2c[nH]c3ncc(-c4ccccc4)cc23)cc1C1CCCC1 [GSK650394] (first compound 0.015 µM, partner dose 0.16 µM), the cell count with WM115 came out at 87.7%; with WM1716, 118%; in the assay with WM1745 it was 113%; in the assay on WM3526, 76.1%; in the assay on WM3619, 93.1%; in the assay with WM451Lu, 110%.

Regarding `COc1cc([C@@H]2c3cc4c(cc3[C@@H](O[C@@H]3O[C@@H]5CO[C@@H](C)O[C@H]5[C@H](O)[C@H]3O)[C@H]3COC(=O)[C@H]23)OCO4)cc(OC)c1O` [etoposide] + COc1ccc(COc2ccc(Cc3cnc(N)nc3N)cc2OC)cc1 [GW2580] (first compound 0.02 µM, partner dose 1 µM), the cell count in the assay with WM115 stood at 86%; with WM1716, 90.2%; in the assay with WM1745, 92.7%; with WM3526, 87.1%; with WM3619 it was 98.1%; in the assay on WM451Lu, 78.3%.

For `COc1cc([C@@H]2c3cc4c(cc3[C@@H](O[C@@H]3O[C@@H]5CO[C@@H](C)O[C@H]5[C@H](O)[C@H]3O)[C@H]3COC(=O)[C@H]23)OCO4)cc(OC)c1O` [etoposide] + CCN(CC)CCCCNc1ncc2cc(-c3cc(OC)cc(OC)c3)c(NC(=O)NC(C)(C)C)nc2n1 [PD173074] (first compound 0.02 µM, partner dose 0.1 µM), the cell count in the assay on WM115 is 77.6%; in the assay on WM1716, 92.4%; in the assay with WM1745 it was 93.8%; with WM3526, 120%; in the assay on WM3619, 99.4%; in the assay with WM451Lu, 108%.

As for `CCN(CC)CCNC(=O)c1c(C)[nH]c(/C=C2\C(=O)Nc3ccc(F)cc32)c1C` [sunitinib] + O=C(Nc1cccc(Cl)c1)Nc1ncc(CCNc2ncnc3ccsc23)s1 [SNS314] (first compound 0.4 µM, partner dose 0.0008 µM), the cell count in the assay on WM115 amounted to 64.7%; with WM1716 it was 139%; in the assay with WM1745, 83.4%; in the assay with WM3526, 88.5%; in the assay on WM3619 it was 150%; in the assay on WM451Lu, 93.5%.

In the case of `C[C@]1(O)C[C@@H](c2nc(-c3ccc4ccc(-c5ccccc5)nc4c3)c3c(N)nccn32)C1` + NCC(=O)Nc1ccc(-n2nc(C(F)(F)F)cc2-c2ccc3c(ccc4ccccc43)c2)cc1 [OSU03012] (first compound 0.4 µM, partner dose 1 µM), the cell count with WM115 was 91.1%; in the assay with WM1716 it was 98.3%; in the assay on WM1745, 74.1%; with WM3526, 45.9%; in the assay on WM3619 it was 67.5%; in the assay with WM451Lu, 49.5%.

As to `CCN(CC)CCNC(=O)c1c(C)[nH]c(/C=C2\C(=O)Nc3ccc(F)cc32)c1C` [sunitinib] + CCCCCCCCCCCC1=C(O)C(=O)C=C(O)C1=O [Embelin] (first compound 0.4 µM, partner dose 1.2 µM), the cell count in the assay on WM115 was determined as 100%; in the assay with WM1716 it was 147%; with WM1745, 92.3%; with WM3526, 84.7%; in the assay on WM3619 it was 147%; in the assay with WM451Lu, 87.8%.

Consider `CCN(CC)CCNC(=O)c1c(C)[nH]c(/C=C2\C(=O)Nc3ccc(F)cc32)c1C` [sunitinib] + Nc1ncn([C@H]2C[C@H](O)[C@@H](CO)O2)c(=O)n1 [decitabine] (first compound 0.4 µM, partner dose 0.1 µM), for which the cell count came out at 85.6% with WM115; 93.1% in the assay on WM1716; 83.8% in the assay on WM1745; 85.2% in the assay with WM3526; 111% with WM3619; 86.8% with WM451Lu.

Consider `C[C@]1(O)C[C@@H](c2nc(-c3ccc4ccc(-c5ccccc5)nc4c3)c3c(N)nccn32)C1` + COC(=O)c1sccc1S(=O)(=O)Nc1ccc(Nc2ccccc2)cc1OC [GSK0660] (first compound 0.4 µM, partner dose 1 µM), for which the cell count came out at 106% in the assay on WM115; 106% in the assay with WM1716; 84.3% in the assay on WM1745; 85.3% in the assay on WM3526; 88.8% in the assay with WM3619; 97.4% with WM451Lu.

`CCN(CC)CCNC(=O)c1c(C)[nH]c(/C=C2\C(=O)Nc3ccc(F)cc32)c1C` [sunitinib] + NCC(=O)Nc1ccc(-n2nc(C(F)(F)F)cc2-c2ccc3c(ccc4ccccc43)c2)cc1 [OSU03012] (first compound 0.4 µM, partner dose 1 µM): the cell count in the assay on WM115 stood at 83.5%; in the assay with WM1716 it was 129%; with WM1745, 73.7%; in the assay with WM3526, 43.1%; in the assay on WM3619 it was 93.7%; in the assay on WM451Lu, 67.2%.

Take `Cn1cnc2c(F)c(Nc3ccc(Br)cc3Cl)c(C(=O)NOCCO)cc21` [selumetinib] + Cn1cncc1[C@@](N)(c1ccc(Cl)cc1)c1ccc2c(c1)c(-c1cccc(Cl)c1)cc(=O)n2C [tipifarnib] (first compound 0.015 µM, partner dose 0.01 µM): the cell count stood at 75.7% in the assay on WM115; 100% in the assay on WM1716; 103% in the assay with WM1745; 71.4% in the assay with WM3526; 66% with WM3619; 102% with WM451Lu.

As to `COc1cc([C@@H]2c3cc4c(cc3[C@@H](O[C@@H]3O[C@@H]5CO[C@@H](C)O[C@H]5[C@H](O)[C@H]3O)[C@H]3COC(=O)[C@H]23)OCO4)cc(OC)c1O` [etoposide] + COc1cc2ncnc(Nc3ccc(Oc4ccccc4)cc3)c2cc1OC [SrcI1] (first compound 0.02 µM, partner dose 2 µM), the cell count with WM115 is 94.1%; in the assay with WM1716, 109%; with WM1745, 80.7%; in the assay on WM3526, 76.4%; in the assay with WM3619, 74.3%; with WM451Lu it was 109%.

`Cn1cnc2c(F)c(Nc3ccc(Br)cc3Cl)c(C(=O)NOCCO)cc21` [selumetinib] + CN1CCN(c2ccc3nc(-c4c(N)c5c(F)cccc5[nH]c4=O)[nH]c3c2)CC1 [Dovitinib] (first compound 0.015 µM, partner dose 0.1 µM): the cell count worked out at 91% in the assay on WM115; 118% in the assay on WM1716; 84.6% in the assay on WM1745; 69.8% with WM3526; 94.5% in the assay with WM3619; 97.9% in the assay with WM451Lu.

Take `C[C@]1(O)C[C@@H](c2nc(-c3ccc4ccc(-c5ccccc5)nc4c3)c3c(N)nccn32)C1` + Nc1ncn([C@H]2C[C@H](O)[C@@H](CO)O2)c(=O)n1 [decitabine] (first compound 0.4 µM, partner dose 0.1 µM): the cell count with WM115 stood at 96.2%; in the assay with WM1716, 84.3%; in the assay on WM1745, 74.9%; in the assay with WM3526, 93%; in the assay on WM3619, 112%; with WM451Lu it was 95.3%.

On to `Cn1cnc2c(F)c(Nc3ccc(Br)cc3Cl)c(C(=O)NOCCO)cc21` [selumetinib] + Cc1cc(Nc2cc(N3CCN(C)CC3)nc(/C=C/c3ccccc3)n2)n[nH]1 [ENMD2076] (first compound 0.015 µM, partner dose 0.04 µM), for which the cell count came out at 90.8% with WM115; 120% with WM1716; 88.8% in the assay on WM1745; 65.1% in the assay on WM3526; 73.7% in the assay on WM3619; 113% in the assay with WM451Lu.

As for `Cn1cnc2c(F)c(Nc3ccc(Br)cc3Cl)c(C(=O)NOCCO)cc21` [selumetinib] + CC(C)C[C@H](NC(=O)[C@H](Cc1ccccc1)NC(=O)c1cnccn1)B(O)O [Bortezomib] (first compound 0.015 µM, partner dose 0.001 µM), the cell count in the assay on WM115 worked out at 82.2%; with WM1716, 83.5%; in the assay with WM1745, 84.7%; with WM3526, 74.2%; in the assay with WM3619, 33.5%; in the assay on WM451Lu, 86.7%.

In the case of `COc1cc([C@@H]2c3cc4c(cc3[C@@H](O[C@@H]3O[C@@H]5CO[C@@H](C)O[C@H]5[C@H](O)[C@H]3O)[C@H]3COC(=O)[C@H]23)OCO4)cc(OC)c1O` [etoposide] + CC(C)CCN1c2nc(Nc3cc(F)c(O)c(F)c3)ncc2N(C)C(=O)C1C [BID1870] (first compound 0.02 µM, partner dose 0.2 µM), the cell count with WM115 worked out at 80.6%; in the assay on WM1716, 104%; in the assay with WM1745 it was 96.5%; in the assay on WM3526, 79.5%; in the assay on WM3619, 87.5%; with WM451Lu, 91.1%.

On to `C[C@]1(O)C[C@@H](c2nc(-c3ccc4ccc(-c5ccccc5)nc4c3)c3c(N)nccn32)C1` + OCc1c[nH]c2ccccc12 [Indole-3-carbinol] (first compound 0.4 µM, partner dose 0.8 µM), for which the cell count was 111% in the assay on WM115; 104% with WM1716; 76.2% in the assay on WM1745; 83.8% in the assay on WM3526; 97.4% in the assay with WM3619; 93.1% in the assay with WM451Lu.

With `Cn1cnc2c(F)c(Nc3ccc(Br)cc3Cl)c(C(=O)NOCCO)cc21` [selumetinib] + Cc1nc(Nc2ncc(C(=O)Nc3c(C)cccc3Cl)s2)cc(N2CCN(CCO)CC2)n1 [dasatanib] (first compound 0.015 µM, partner dose 0.004 µM), the cell count worked out at 69.9% in the assay on WM115; 102% in the assay on WM1716; 79.5% in the assay on WM1745; 73.8% in the assay with WM3526; 70.7% in the assay with WM3619; 81.2% in the assay on WM451Lu.

Take `Cn1cnc2c(F)c(Nc3ccc(Br)cc3Cl)c(C(=O)NOCCO)cc21` [selumetinib] + O=S(=O)(c1ccccc1)N(CC(F)(F)F)c1ccc(C(O)(C(F)(F)F)C(F)(F)F)cc1 [T0901317] (first compound 0.015 µM, partner dose 1.4 µM): the cell count is 82.5% in the assay on WM115; 94.1% in the assay with WM1716; 74.9% in the assay with WM1745; 63.5% in the assay with WM3526; 69.9% with WM3619; 97.8% in the assay with WM451Lu.

With `Cn1cnc2c(F)c(Nc3ccc(Br)cc3Cl)c(C(=O)NOCCO)cc21` [selumetinib] + COc1cc(Nc2ncc(F)c(Nc3ccc4c(n3)NC(=O)C(C)(C)O4)n2)cc(OC)c1OC [Tamatinib] (first compound 0.015 µM, partner dose 0.4 µM), the cell count came to 78.8% with WM115; 94.2% in the assay on WM1716; 55.5% in the assay on WM1745; 60.2% with WM3526; 79.2% with WM3619; 92.4% with WM451Lu.

Values taken from the supplement of paper PMC4604168 (melanoma cell lines).
